These results are taken from article PMC8424950.

Chains of the proteins cited; added tags and fusions are not shown.
UniProt Q9NP61: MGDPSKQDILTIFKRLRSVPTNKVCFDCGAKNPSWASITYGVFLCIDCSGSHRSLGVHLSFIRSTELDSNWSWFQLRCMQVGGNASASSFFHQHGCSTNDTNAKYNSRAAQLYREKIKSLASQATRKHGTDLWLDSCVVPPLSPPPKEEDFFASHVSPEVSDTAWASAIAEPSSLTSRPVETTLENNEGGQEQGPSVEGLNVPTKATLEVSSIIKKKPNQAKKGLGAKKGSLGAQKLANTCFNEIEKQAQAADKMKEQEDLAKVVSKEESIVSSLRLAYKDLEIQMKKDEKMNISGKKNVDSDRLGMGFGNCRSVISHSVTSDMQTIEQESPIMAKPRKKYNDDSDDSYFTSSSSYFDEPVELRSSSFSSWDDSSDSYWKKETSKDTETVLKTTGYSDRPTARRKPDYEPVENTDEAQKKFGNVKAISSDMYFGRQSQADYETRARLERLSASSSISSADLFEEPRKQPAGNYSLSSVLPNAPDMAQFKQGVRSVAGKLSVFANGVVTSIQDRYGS
UniProt Q9H3P7: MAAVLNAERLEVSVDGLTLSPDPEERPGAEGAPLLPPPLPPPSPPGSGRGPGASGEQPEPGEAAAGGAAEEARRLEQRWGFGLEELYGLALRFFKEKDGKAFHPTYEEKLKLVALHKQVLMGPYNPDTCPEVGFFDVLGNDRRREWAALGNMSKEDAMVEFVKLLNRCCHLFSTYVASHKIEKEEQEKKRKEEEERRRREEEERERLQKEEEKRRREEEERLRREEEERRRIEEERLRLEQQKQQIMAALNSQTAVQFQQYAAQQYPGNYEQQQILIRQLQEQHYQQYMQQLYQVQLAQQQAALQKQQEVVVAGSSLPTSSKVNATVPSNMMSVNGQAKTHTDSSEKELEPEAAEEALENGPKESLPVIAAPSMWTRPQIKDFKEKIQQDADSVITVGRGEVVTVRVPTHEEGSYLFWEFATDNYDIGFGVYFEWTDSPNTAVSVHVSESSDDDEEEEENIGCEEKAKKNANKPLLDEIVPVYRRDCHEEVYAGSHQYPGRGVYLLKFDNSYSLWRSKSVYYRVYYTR
UniProt Q8N6T3: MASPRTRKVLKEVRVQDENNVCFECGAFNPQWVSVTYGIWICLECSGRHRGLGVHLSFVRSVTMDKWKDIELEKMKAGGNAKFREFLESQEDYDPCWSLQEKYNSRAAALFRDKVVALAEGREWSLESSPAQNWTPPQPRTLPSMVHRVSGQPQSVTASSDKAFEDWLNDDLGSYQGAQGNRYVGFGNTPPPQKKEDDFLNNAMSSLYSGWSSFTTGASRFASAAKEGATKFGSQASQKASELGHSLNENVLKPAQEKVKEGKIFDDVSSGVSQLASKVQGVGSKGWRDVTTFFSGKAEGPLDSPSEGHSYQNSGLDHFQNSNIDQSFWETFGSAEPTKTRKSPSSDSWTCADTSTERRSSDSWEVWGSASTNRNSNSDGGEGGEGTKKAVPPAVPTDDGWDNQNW

One test concerns the target ArfGAP3-myc (human) (UniProt Q9NP61). Nature of the test: co-IP; myc-trap agarose beads on lysates of HeLa co-transfected with KDELR1-mCherry and myc-ACBD3, ARFGAP1-myc or ARFGAP3-myc; western blot. In general terms: Immunoblotting shows a protein as a band on a membrane.
Another test concerns the target myc-ACBD3 (human) (UniProt Q9H3P7). The test is described as above.
The target in another test is ArfGAP1-myc (human) (UniProt Q8N6T3). The test is described as above.
The next test concerns the target T1, KDELR1-mCherry (human) (UniProt P24390).
T1 sequence: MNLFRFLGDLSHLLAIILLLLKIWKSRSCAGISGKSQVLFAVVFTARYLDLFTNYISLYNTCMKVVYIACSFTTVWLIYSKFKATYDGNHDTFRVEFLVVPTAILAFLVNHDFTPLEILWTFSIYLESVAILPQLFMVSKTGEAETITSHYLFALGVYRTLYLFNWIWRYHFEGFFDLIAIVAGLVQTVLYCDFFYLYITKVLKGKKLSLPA
Nature of the test: co-IP; anti-RFP agarose beads, 4 h at 4°C, on lysates (20 mM HEPES pH 7.4, 100 mM NaCl, 2 mM DDM + 0.02% CHS) of HeLa cells with KDELR1-mCherry or endogenously tagged KDELR1-3xFlag-mCherry; western blot; also done with ACBD3-depleted, ACBD3-KO and ACBD3 over-expressing cells.

These are yes or no findings as the source states them, for the method shown. Binding seen in cells or lysates may run through a third protein. Some entries that bind do so weakly or less than the wild type.

B1: KDELR1-mCherry (receptor, UniProt P24390 1-212)
chain: MNLFRFLGDLSHLLAIILLLLKIWKSRSCAGISGKSQVLFAVVFTARYLDLFTNYISLYNTCMKVVYIACSFTTVWLIYSKFKATYDGNHDTFRVEFLVVPTAILAFLVNHDFTPLEILWTFSIYLESVAILPQLFMVSKTGEAETITSHYLFALGVYRTLYLFNWIWRYHFEGFFDLIAIVAGLVQTVLYCDFFYLYITKVLKGKKLSLPA
For the molecule B1, the binding result with ArfGAP3-myc (human), with myc-ACBD3 (human) and in the test with ArfGAP1-myc (human) was “binds” each time.

B2: Golgin160 (endogenous) (protein, UniProt Q08378 1-1498)
chain: MDGASAEQDGLQEDRSHSGPSSLPEAPLKPPGPLVPPDQQDKVQCAEVNRASTEGESPDGPGQGGLCQNGPTPPFPDPPSSLDPTTSPVGPDASPGVAGFHDNLRKSQGTSAEGSVRKEALQSLRLSLPMQETQLCSTDSPLPLEKEEQVRLQARKWLEEQLKQYRVKRQQERSSQPATKTRLFSTLDPELMLNPENLPRASTLAMTKEYSFLRTSVPRGPKVGSLGLPAHPREKKTSKSSKIRSLADYRTEDSNAGNSGGNVPAPDSTKGSLKQNRSSAASVVSEISLSPDTDDRLENTSLAGDSVSEVDGNDSDSSSYSSASTRGTYGILSKTVGTQDTPYMVNGQEIPADTLGQFPSIKDVLQAAAAEHQDQGQEVNGEVRSRRDSICSSVSLESSAAETQEEMLQVLKEKMRLEGQLEALSLEASQALKEKAELQAQLAALSTKLQAQVECSHSSQQRQDSLSSEVDTLKQSCWDLERAMTDLQNMLEAKNASLASSNNDLQVAEEQYQRLMAKVEDMQRSMLSKDNTVHDLRQQMTALQSQLQQVQLERTTLTSKLKASQAEISSLQSVRQWYQQQLALAQEARVRLQGEMAHIQVGQMTQAGLLEHLKLENVSLSQQLTETQHRSMKEKGRIAAQLQGIEADMLDQEAAFMQIQEAKTMVEEDLQRRLEEFEGERERLQRMADSAASLEQQLEQVKLTLLQRDQQLEALQQEHLDLMKQLTLTQEALQSREQSLDALQTHYDELQARLGELQGEAASREDTICLLQNEKIILEAALQAAKSGKEELDRGARRLEEGTEETSETLEKLREELAIKSGQVEHLQQETAALKKQMQKIKEQFLQQKVMVEAYRRDATSKDQLISELKATRKRLDSELKELRQELMQVHGEKRTAEAELSRLHREVAQVRQHMADLEGHLQSAQKERDEMETHLQSLQFDKEQMVAVTEANEALKKQIEELQQEARKAITEQKQKMRRLGSDLTSAQKEMKTKHKAYENAVGILSRRLQEALAAKEAADAELGQLRAQGGSSDSSLALHERIQALEAELQAVSHSKTLLEKELQEVIALTSQELEESREKVLELEDELQESRGFRKKIKRLEESNKKLALELEHEKGKLTGLGQSNAALREHNSILETALAKREADLVQLNLQVQAVLQRKEEEDRQMKHLVQALQASLEKEKEKVNSLKEQVAAAKVEAGHNRRHFKAASLELSEVKKELQAKEHLVQKLQAEADDLQIREGKHSQEIAQFQAELAEARAQLQLLQKQLDEQLSKQPVGNQEMENLKWEVDQKEREIQSLKQQLDLTEQQGRKELEGLQQLLQNVKSELEMAQEDLSMTQKDKFMLQAKVSELKNNMKTLLQQNQQLKLDLRRGAAKTRKEPKGEASSSNPATPIKIPDCPVPASLLEELLRPPPAVSKEPLKNLNSCLQQLKQEMDSLQRQMEEHALTVHESLSSWTPLEPATASPVPPGGHAGPRGDPQRHSQSRASKEGPGE
Turning to B2, the binding result with KDELR1-mCherry (human) was “binds”.
